# Source: the supplement of paper PMC8728848
# The other results are listed elsewhere or left out.
# B1: DGL (Dioclea grandiflora), P08902 (protein)
# chain: ADTIVAVELDSYPNTDIGDPNYPHIGIDIKSIRSKSTARWNMQTGKVGTVHISYNSVAKRLSAVVSYSGSSSTTVSYDVDLNNVLPEWVRVGLSATTGLYKETNTILSWSFTSKLKTNSIADENSLHFSFHKFSQNPKDLILQGDAFTDSDGNLELTKVSSSGDPQGNSVGRALFYAPVHIWESSAVVASFDATFTFLIKSPDREPADGITFFIANTDTSIPSGSGGRLLGLFPDAN
# Columns and labels:
# Assay in all cases: glycan array binding signal (z-score within array); higher = stronger binding
# Conditions in all cases: glycan notation: IUPAC condensed, linker removed
# [1] = target: GlcNAc(a1-6)Gal(b1-4)GlcNAc
# Procedure, shortened: (§1)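 The binding signal is a Z-score computed within each array and averaged over linkers. Arrays of the same protein sequence at different concentrations or buffers were also averaged together. Data originate from 3228 arrays in the Consortium for Functional Glycomics database, kept only where the protein sequence was available.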
# [2] = target: GlcNAc(b1-2)Gal(b1-3)GalNAc
# Procedure, shortened: as §1
# [3] = target: GlcNAc(b1-2)Man(a1-3)[GlcNAc(b1-2)Man(a1-6)]Man(b1-4)GlcNAc(b1-4)GlcNAc
# Procedure, shortened: as §1
# [4] = target: GlcNAc(b1-2)Man(a1-3)[GlcNAc(b1-2)Man(a1-6)]Man(b1-4)GlcNAc(b1-4)[Fuc(a1-6)]GlcNAc
# Procedure, shortened: as §1
# [5] = target: GlcNAc(b1-3)Gal
# Procedure, shortened: as §1
# [6] = target: GlcNAc(b1-3)Gal(b1-3)GalNAc
# Procedure, shortened: as §1
# [7] = target: GlcNAc(b1-3)Gal(b1-4)Glc
# Procedure, shortened: as §1
# [8] = target: GlcNAc(b1-3)Gal(b1-4)GlcNAc
# Procedure, shortened: as §1
# [9] = target: GlcNAc(b1-3)Gal(b1-4)GlcNAc(b1-3)Gal(b1-4)GlcNAc
# Procedure, shortened: as §1
# [10] = target: GlcNAc(b1-3)GalNAc
# Procedure, shortened: as §1
# [11] = target: GlcNAc(b1-3)Man
# Procedure, shortened: as §1
# [12] = target: GlcNAc(b1-3)[GlcNAc(b1-4)][GlcNAc(b1-6)]GlcNAc
# Procedure, shortened: as §1
# [13] = target: GlcNAc(b1-3)[GlcNAc(b1-6)]Gal(b1-4)GlcNAc
# Procedure, shortened: as §1
# [14] = target: GlcNAc(b1-3)[GlcNAc(b1-6)]GalNAc
# Procedure, shortened: as §1
# [15] = target: GlcNAc(b1-4)Gal(b1-4)GlcNAc
# Procedure, shortened: as §1
# [16] = target: GlcNAc(b1-4)GlcNAc
# Procedure, shortened: as §1
# [17] = target: GlcNAc(b1-4)GlcNAc(b1-4)GlcNAc
# Procedure, shortened: as §1
# [18] = target: GlcNAc(b1-4)GlcNAc(b1-4)GlcNAc(b1-4)GlcNAc(b1-4)GlcNAc
# Procedure, shortened: as §1
# [19] = target: GlcNAc(b1-4)GlcNAc(b1-4)GlcNAc(b1-4)GlcNAc(b1-4)GlcNAc(b1-4)GlcNAc
# Procedure, shortened: as §1
# [20] = target: GlcNAc(b1-4)[GlcNAc(b1-6)]GalNAc
# Procedure, shortened: as §1
# [21] = target: GlcNAc(b1-6)Gal(b1-4)GlcNAc
# Procedure, shortened: as §1
# [22] = target: GlcNAc(b1-6)GalNAc
# Procedure, shortened: as §1
# [23] = target: GlcNAc3Prop(b1-4)GlcNAc
# Procedure, shortened: as §1
# [24] = target: GlcNAc6S(b1-3)Gal(b1-4)GlcNAc
# Procedure, shortened: as §1
# [25] = target: Kdn(a2-3)Gal(b1-3)GalNAc
# Procedure, shortened: as §1
# [26] = target: Kdn(a2-3)Gal(b1-3)GlcNAc
# Procedure, shortened: as §1
# [27] = target: Kdn(a2-3)Gal(b1-4)Glc
# Procedure, shortened: as §1
# [28] = target: Kdn(a2-3)Gal(b1-4)GlcNAc
# Procedure, shortened: as §1
# [29] = target: Kdn(a2-3)Gal(b1-4)[Fuc(a1-3)]GlcNAc
# Procedure, shortened: as §1
# [30] = target: Kdn(a2-6)Gal(b1-4)GlcNAc
# Procedure, shortened: as §1
# [31] = target: Man(a1-2)Man(a1-2)Man(a1-3)Man
# Procedure, shortened: as §1
# [32] = target: Man(a1-2)Man(a1-2)Man(a1-6)[Man(a1-3)]Man
# Procedure, shortened: as §1
# [33] = target: Man(a1-2)Man(a1-3)Man
# Procedure, shortened: as §1
# [34] = target: Man(a1-2)Man(a1-3)[Man(a1-2)Man(a1-6)]Man
# Procedure, shortened: as §1
# [35] = target: Man(a1-2)Man(a1-3)[Man(a1-2)Man(a1-6)]Man(a1-6)[Man(a1-2)Man(a1-2)Man(a1-3)]Man
# Procedure, shortened: as §1
# [36] = target: Man(a1-2)Man(a1-3)[Man(a1-2)Man(a1-6)]Man(a1-6)[Man(a1-2)Man(a1-2)Man(a1-3)]Man(b1-4)GlcNAc(b1-4)GlcNAc
# Procedure, shortened: as §1
# [37] = target: Man(a1-2)Man(a1-3)[Man(a1-6)]Man(a1-6)[Man(a1-2)Man(a1-3)]Man(b1-4)GlcNAc(b1-4)GlcNAc
# Procedure, shortened: as §1
# [38] = target: Man(a1-2)Man(a1-6)[Man(a1-3)]Man(a1-6)[Man(a1-2)Man(a1-2)Man(a1-3)]Man
# Procedure, shortened: as §1
# [39] = target: Man(a1-2)Man(a1-6)[Man(a1-3)]Man(a1-6)[Man(a1-2)Man(a1-2)Man(a1-3)]Man(b1-4)GlcNAc(b1-4)GlcNAc
# Procedure, shortened: as §1
# [40] = target: Man(a1-3)[Man(a1-6)]Man
# Procedure, shortened: as §1
# [41] = target: Man(a1-3)[Man(a1-6)]Man(a1-6)[Man(a1-2)Man(a1-3)]Man(b1-4)GlcNAc(b1-4)GlcNAc
# Procedure, shortened: as §1
# [42] = target: Man(a1-3)[Man(a1-6)]Man(a1-6)[Man(a1-3)]Man
# Procedure, shortened: as §1
# [43] = target: Man(a1-3)[Man(a1-6)]Man(a1-6)[Man(a1-3)]Man(b1-4)GlcNAc(b1-4)GlcNAc
# Procedure, shortened: as §1
# [44] = target: Man(a1-3)[Man(a1-6)]Man(b1-4)GlcNAc(b1-4)GlcNAc
# Procedure, shortened: as §1
# [45] = target: Man(a1-6)Man
# Procedure, shortened: as §1
binder,measurement,setting,value
B1,glycan array binding signal (z-score),[1],-0.17
same,glycan array binding signal (z-score),[2],-0.177
same,glycan array binding signal (z-score),[3],1.26
same,glycan array binding signal (z-score),[4],0.316
same,glycan array binding signal (z-score),[5],-0.178
same,glycan array binding signal (z-score),[6],-0.185
same,glycan array binding signal (z-score),[7],-0.182
same,glycan array binding signal (z-score),[8],-0.179
same,glycan array binding signal (z-score),[9],-0.179
same,glycan array binding signal (z-score),[10],-0.158
same,glycan array binding signal (z-score),[11],-0.182
same,glycan array binding signal (z-score),[12],-0.183
same,glycan array binding signal (z-score),[13],-0.183
same,glycan array binding signal (z-score),[14],-0.175
same,glycan array binding signal (z-score),[15],-0.171
same,glycan array binding signal (z-score),[16],-0.178
same,glycan array binding signal (z-score),[17],-0.177
same,glycan array binding signal (z-score),[18],-0.173
same,glycan array binding signal (z-score),[19],-0.177
same,glycan array binding signal (z-score),[20],-0.167
same,glycan array binding signal (z-score),[21],-0.171
same,glycan array binding signal (z-score),[22],-0.181
same,glycan array binding signal (z-score),[23],-0.178
same,glycan array binding signal (z-score),[24],-0.155
same,glycan array binding signal (z-score),[25],-0.175
same,glycan array binding signal (z-score),[26],-0.18
same,glycan array binding signal (z-score),[27],-0.178
same,glycan array binding signal (z-score),[28],-0.172
same,glycan array binding signal (z-score),[29],-0.176
same,glycan array binding signal (z-score),[30],-0.162
same,glycan array binding signal (z-score),[31],0.499
same,glycan array binding signal (z-score),[32],5.91
same,glycan array binding signal (z-score),[33],1.58
same,glycan array binding signal (z-score),[34],9.67
same,glycan array binding signal (z-score),[35],3.48
same,glycan array binding signal (z-score),[36],-0.111
same,glycan array binding signal (z-score),[37],6.68
same,glycan array binding signal (z-score),[38],7.91
same,glycan array binding signal (z-score),[39],6.41
same,glycan array binding signal (z-score),[40],3.63
same,glycan array binding signal (z-score),[41],1.2
same,glycan array binding signal (z-score),[42],2.21
same,glycan array binding signal (z-score),[43],1.08
same,glycan array binding signal (z-score),[44],3.07
same,glycan array binding signal (z-score),[45],-0.179
